Experimental data reported in PubChem BioAssay AID686978 (National Center for Advancing Translational Sciences (NCATS), 2013).
In all, about 420,000 compounds went through this assay and about 64,000 (15%) were called active. This list was built around the results that the source calls inconclusive (neither active nor inactive); the mix of calls is not that of the screen. The call rests on the fitted dose curve; in most records, active means well fitted inhibition curve with a large enough effect; inconclusive means small, poorly fitted or top-dose-only effect; inactive means flat fitted curve, though single readings scatter. Potencies of inconclusive entries are left out as doubtful fits.

Assay: qHTS for Inhibitors of human tyrosyl-DNA phosphodiesterase 1 (TDP1): qHTS in cells in absence of CPT; further: nearly all actives have a fitted effect of over 55% in size
Conditions: DT40 Tdp1-/- hTDP1 cells, no CPT, ATP luminescence, 48 h; activity change, negative = growth inhibition: at 46.2 µM (top of the series) unless noted
Procedure, shortened: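 A cellular qHTS used chicken DT40 cells lacking endogenous Tdp1 but carrying stably transfected human TDP1. Compounds were applied without camptothecin, and cell growth kinetics were judged by ATP-dependent luminescence after ≥48 hr.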
On the % scale 0 is the no-effect control and ±100 the full control effect; potency means the concentration at half of the fitted maximal effect; tags describe the fitted curve by direction and shape.

Row | Compound | Potency | activity change, negative = growth inhibition
1 | Cc1ccccc1NC(=S)N1CCN(Cc2ccccc2)CC1 | inconclusive [inhibitor, single point] | 
2 | Oc1ccc(Cl)cc1Nc1nc2ccccc2n2cnnc12 |  | inconclusive: -23.9% [inhibitor]
3 | Cc1ccc(NP(=O)(Nc2ccc(C)cc2)Nc2ccc(C)cc2)cc1 | inconclusive [inhibitor, single point] | 
4 | C/C(=N\OCC(=O)Nc1ccc(OC(F)(F)F)cc1)c1ccc2c(c1)OCCO2 | inconclusive [inhibitor, single point] | 
5 | COc1ccccc1N(Cc1cc2cccc(C)c2[nH]c1=O)C(=O)c1cccc(Cl)c1 | active: 20.6 µM | 
6 | COc1ccc(-n2c(SCC#N)nc3c(sc(=S)n3-c3ccccc3)c2=O)c(OC)c1 | inconclusive [inhibitor, single point] | 
7 | CN(Cc1ccc(C(C)(C)C)cc1)C(=O)c1ccc2c(c1)OCO2 | inconclusive [inhibitor, single point] | 
8 | COC(=O)c1ccc(Oc2cc(C)nc(-n3nc(C)cc3C)n2)cc1 | active: 0.58 µM | 
9 | COc1ccc(CNC(=O)C(C)n2ccc3cc(S(=O)(=O)N4CCCCCC4)ccc32)cc1 (stereo not given) | inconclusive [inhibitor, single point] | 
10 | COc1ccc2nc(-n3c(C)ccc3C)sc2c1 | inactive | 
11 | CC1(NC(=O)Nc2cc([N+](=O)[O-])ccc2O)CCS(=O)(=O)C1 (stereo not given) | inactive | 
12 | CCc1cccc2c1NC(=O)C21N2CCCC2C(C(=O)c2ccc3ccccc3c2)C12C(=O)Nc1ccccc12 (stereo not given) | active: 13 µM | 
13 | COc1ccc(NC(=O)CN(C)C(=O)c2cc(C3CC3)nn2-c2ccccc2)cc1 | inconclusive [inhibitor, partial curve, poor fit] | 
14 | Cc1cccc(NS(=O)(=O)c2cc(OCC(N)=O)c(C)cc2Cl)c1 | inconclusive [inhibitor, single point] | 
15 | O=C(NCc1cccnc1)c1cc(-c2cccs2)on1 | inconclusive [inhibitor, single point] | 
16 | CCCCn1c(/C=C/c2ccco2)nc2ccccc21 | inconclusive [inhibitor, single point] | 
17 | COc1cc(/C=N/Nc2ccc(C(=O)O)cc2)ccc1O | inactive | 
18 | COc1ccc(NC(=O)c2sc3nc(C)cc(C)c3c2N)c(OC)c1 | inconclusive [inhibitor, partial curve, poor fit] | 
19 | O=C(CCN1C(=O)COc2ccccc21)NCCN1CCN(c2cccc(Cl)c2)CC1 | inconclusive [inhibitor, partial curve] | 
20 | Cc1ccc(CNC(=O)CCc2ccccc2)cc1 | inactive | 
21 | Cc1ccc(NC(=O)C(C)Oc2ccccc2)cc1S(=O)(=O)N1CCCCCC1 (stereo not given) | active: 23.1 µM | 
22 | CCCc1[nH]nc2c1C(C1CCCCC1)C(C#N)=C(N)O2 (stereo not given) | inconclusive [inhibitor, single point] | 
23 | COc1cc(OC)c(-c2c3cc(O)c(=O)cc-3oc3cc(O)c(O)cc23)cc1OC | inconclusive [inhibitor, partial curve] | 

Row | Compound | Potency | activity change, negative = growth inhibition
24 | COc1ccc(Cl)cc1CC1(C)C(=O)Nc2ccc(S(=O)(=O)NC3CCCCC3)cc21 (stereo not given) | inconclusive [inhibitor, single point] | 
25 | Cc1ccc(OCC(=O)NNC(=O)CSc2ncc(C#N)c(N)n2)cc1 | inactive | 
26 | C=CCN(Cc1ccc(Cl)s1)C(=O)c1cc(S(=O)(=O)N2CCOCC2)ccc1F | active: 13 µM | 
27 | CCOC(=O)[C@]12CCCC=C1N(Cc1cccc3ccccc13)C(=O)[C@H](CC(=O)N1CCCC1)C2 | active: 20.6 µM | 
28 | CCOc1ccc(N(CC(=O)NC2CCCCC2)C(=O)Cn2nnc(-c3ccc(C)o3)n2)cc1 | inconclusive [inhibitor, partial curve] | 
29 | CC(C)CN(C(=O)COC(=O)c1cnccn1)c1c(N)n(Cc2ccccc2)c(=O)[nH]c1=O |  | inconclusive: -32.4% [inhibitor]
30 | COc1cc(C2c3c(-c4cc(Cl)c(C)cc4O)n[nH]c3C(=O)N2Cc2cccnc2)ccc1O (stereo not given) | inconclusive [inhibitor, single point] | 
31 | CC(=O)NC(c1cccc(F)c1)c1nc(-c2cccs2)cs1 (stereo not given) |  | inconclusive: 0.0489% [inhibitor]
32 | COC(=O)C1C2CC(C(Br)C2Br)C1C(=O)O (stereo not given) |  | inconclusive: -32.3% [inhibitor]
33 | CCN1C(=O)[C@@H]2[C@@H]3CN(S(=O)(=O)c4ccc(C)cc4)[C@@H](c4ccccc4F)[C@@H]3C(=O)C[C@@H]2C1=O | inactive | 
34 | COc1ccc(NC(=O)Cn2nnc(C(=O)NCc3ccccc3Cl)c2N)cc1Cl | inactive | 
35 | CCOc1ccccc1C(=O)N[C@H](C(=O)Nc1ccc(OC)c(S(=O)(=O)N2CCOCC2)c1)C(C)C | inconclusive [inhibitor, single point] | 
36 | CSCCC(NC(=O)c1ccccc1Br)C(=O)Nc1ccc(C)cc1 (stereo not given) | inactive | 
37 | O=C(C[n+]1cccc2ccccc21)c1ccc([N+](=O)[O-])cc1 | inconclusive [inhibitor, single point] | 
38 | Cc1ccc(NC(=S)N2CCCCCC2)cc1 | inactive | 
39 | Cn1c(/C=C/c2ccccc2[N+](=O)[O-])nc2ccccc2c1=O | inconclusive [inhibitor, single point] | 
40 | Cc1cccc2c(C(=O)O)c3cccc(C)c3nc12 | inactive | 
41 | CCCN1C(=O)/C(=C/C=C2\N(CC)c3ccccc3C2(C)C)SC1=S | active: 13 µM | 
42 | CN(C)CCCOc1cccc(Cl)c1 | inactive | 
43 | CC(NC(=O)c1cc([N+](=O)[O-])cc([N+](=O)[O-])c1)c1ccc(-n2ccnc2)cc1 (stereo not given) | inconclusive [inhibitor, single point] | 
44 | COc1cc(NC(=O)c2ccc3c(c2)OCO3)c2ncccc2c1 | inconclusive [inhibitor, single point] | 
45 | O=C(CSc1nnnn1C1CCCC1)Nc1cccc(NC(=O)c2ccco2)c1 | inconclusive [inhibitor, single point] | 
